Experimental data published in PubChem BioAssay AID1347073 (National Center for Advancing Translational Sciences (NCATS), 2019).
The whole screen tested about 45,000 compounds, of which about 200 (0.44%) were called active. Roughly 7% stayed inconclusive and do not appear here. Calls come from the whole dose curve; as a rule, active = well fitted activation curve with a large enough effect; inconclusive = small, poorly fitted or top-dose-only effect; inactive = no such curve, though single readings can be large or run the other way. This is one part of the list.

Test: qHTS of TDP-43 Inhibitors: NCGC Sytravon Library Screen; note: 0% is about no effect; nearly all actives have a fitted effect of over 55% in size
Details: yeast TDP-43 toxicity rescue, BacTiter-Glo growth, 24 h; series mostly up to 46.1 µM; growth rescue (activation): at the top concentration
Summary of the method: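 TDP-43-expressing yeast, pregrown in raffinose, seeded at OD600 0.02 in galactose medium with compound for 24 hr at 30 deg C. Growth read by BacTiter-Glo luminescence, so rescue of toxicity appears as activation.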

Row | SMILES | growth rescue (activation)
1 | O=C(CSc1nc2ccc(Cl)cc2[nH]1)NCc1ccco1 | inactive: -11.6%
2 | COc1ccc(Nc2nnc(SCC(=O)Nc3ccc4[nH]c(=O)[nH]c4c3)s2)cc1 | inactive: -4.94%
3 | S=C(Nc1ccccc1)N1CCN(C/C=C/c2ccccc2)CC1 | inactive: 1.1%
4 | CC(=O)Nc1ccc(/C=N/NC(=O)c2cccc(S(=O)(=O)N3CCOCC3)c2)cc1 | inactive: -19%
5 | Cc1ccc(NC2Sc3ccccc3NC2=O)cc1 (stereo unspecified) | inactive: 15.8%
6 | CC1(C(=O)NS(=O)(=O)c2cccs2)CCN1C(=O)CC1CCCCC1 (stereo unspecified) | inactive: -17.5%
7 | O=C(c1ccncc1)N(c1ccc2oc3c(c2c1)CCCC3)S(=O)(=O)c1cccc([N+](=O)[O-])c1 | inactive: 32.5%
8 | CC1CCCCC12NC(=O)N(CC(=O)NNC(=O)c1ccc(Br)cc1)C2=O (stereo unspecified) | inactive: -5.89%
9 | NC(c1csc(NC(=O)Nc2ccc(OC(F)(F)F)cc2)n1)C1CCCCC1 (stereo unspecified) | inactive: 9.39%
10 | CC(=O)c1sc(NC(=O)c2cc(-c3ccccc3)nn2-c2ccccc2)nc1C | inactive: 9.35%
11 | Cn1cnc([N+](=O)[O-])c1Oc1ccccc1 | inactive: 3.45%
12 | COc1ccc(/C=N/NC(=O)c2[nH]c3ccc(C)cc3c2-c2ccccc2)c(C(=O)O)c1OC | inactive: 4.87%
13 | CC(=O)Nc1ccc(S(=O)(=O)NCCC(=O)NC2CCCCCC2)cc1 | inactive: 6.54%
14 | C/C(=N/NC(=O)CSc1nc2ccccc2n1C)c1ccc(O)cc1 | inactive: -2.68%
15 | COc1ccc(-c2ccc(SCC(=O)NC3CCCCC3)nn2)cc1 | inactive: -0.708%
16 | Oc1ccccc1CN1CCC(C(O)(c2ccccc2)c2ccccc2)CC1 | inactive: 5.71%
17 | Cc1cc(C)c(C#N)c(Oc2ccc(F)cc2)n1 | inactive: 14.8%
18 | COc1ccccc1C(=O)Nc1ccc(S(=O)(=O)Nc2cnc3ccccc3n2)cc1 | inactive: -6.48%
19 | Cc1cccc(C)c1NC(=O)CN1CCN(C(=O)c2ccc(OCc3cn4ccccc4n3)cc2)CC1 | inactive: 11.9%
20 | COc1cc([N+](=O)[O-])ccc1NC(=S)NC(=O)CC(C)(C)C | inactive: -0.761%
21 | CCOC(=O)C1(Cc2ccccc2)CCCN(C2CCCC2)C1 (stereo unspecified) | inactive: -4.12%
22 | CCOC(=O)Cn1c(C)c(Br)c(COC)c(C#N)c1=O | inactive: 10.8%

Row | SMILES | growth rescue (activation)
23 | O=C1C2CC=CCC2C(=O)N1c1ccc(NCCc2cccc(F)c2)c([N+](=O)[O-])c1 (stereo unspecified) | inactive: -7.74%
24 | O=C(Nc1ccccc1C(=O)O)c1ccc2c(c1)C(=O)N(c1cccc([N+](=O)[O-])c1)C2=O | inactive: 1.94%
25 | COc1cc(OC)cc(N(C(=O)c2ccco2)C(C(=O)NC2CCCC2)c2ccc(N(C)C)cc2)c1 (stereo unspecified) | inactive: 9.86%
26 | C=CCSC1=NN2CCS(=O)(=O)N=C2S1 | inactive: -11.1%
27 | Cc1cc(C)c(NC(=S)NCC2CCN(C(C)c3ccccc3)C2)c(C)c1 (stereo unspecified) | inactive: 1.47%
28 | COc1ccc(S(=O)(=O)NCCC(=O)OCc2cc(=O)oc3cc(C)ccc23)cc1[N+](=O)[O-] | inactive: -22.3%
29 | OC(COc1ccccc1)CN1CCN(Cc2ccc3c(c2)OCO3)CC1 (stereo unspecified) | inactive: 10.4%
30 | O=S(=O)(c1ccccc1)c1nc(Cc2ccccc2)oc1N1CCOCC1 | inactive: -11%
31 | Cc1cccc(C)c1NC(=O)c1sc(N)nc1-c1ccccc1 | inactive: 3.61%
32 | CCOC(=O)CN1C(=O)/C(=C/c2c(F)cccc2Cl)Oc2ccccc21 | inactive: -9.65%
33 | COc1ccc(CCNC(=O)c2ccc(S(=O)(=O)N(C)c3ccccc3)cc2)cc1OC | inactive: 15%
34 | CN(CC(=O)NCc1cccnc1)S(=O)(=O)c1ccc(F)cc1 | inactive: -6.52%
35 | CCN(CC)S(=O)(=O)c1ccc(Cl)c(NC(=O)CCCCl)c1 | inactive: 5.98%
36 | CCC(=O)NC(=S)Nc1ccccc1C(=O)OC | inactive: 26.6%
37 | CC(NC(=O)CCNS(=O)(=O)c1cccc2nsnc12)c1ccccc1 (stereo unspecified) | inactive: 5.13%
38 | COc1cc(Cl)c(C)cc1NC(=O)c1ccccc1-n1cnnn1 | inactive: 11.1%
39 | O=C(CN1C(=O)NC2(CCCCCCC2)C1=O)NC1CCCc2ccccc21 (stereo unspecified) | inactive: -10.2%
40 | N#C/C(C(=O)Oc1ccccc1)=C1/Nc2ccccc2-c2ccccc21 | inactive: 28.9%
41 | O=C(N/N=C/c1ccco1)c1ccccc1OCc1ccc(Br)cc1 | inactive: 20.4%
42 | Cc1c(C(=S)Nc2ccccc2)cnn1-c1ccc([N+](=O)[O-])cc1 | inactive: 24.8%
43 | CC(=O)Nc1ccc(S(=O)(=O)Nc2nc3cc4c(cc3nc2Cl)OCCO4)cc1 | inactive: 24.3%
44 | CCNS(=O)(=O)c1ccc(OC)c(C(=O)NC2CCCCC2)c1 | inactive: -0.198%

Row | SMILES | growth rescue (activation)
45 | COc1cc(/C=N/NC(=O)CCN2CCN(C)CC2)cc2c1OCO2 | inactive: -29%
46 | O=C(CSc1nc2cc(Cl)ccc2s1)Nc1cccc(S(=O)(=O)N2CCOCC2)c1 | inactive: 14.8%
47 | COc1ccc(C(O)(CCN2CCOCC2)c2ccccc2)cc1 (stereo unspecified) | inactive: 3.99%
48 | Cc1noc(C)c1CS(=O)(=O)Cc1ccc(Cl)cc1 | inactive: 10%
49 | CCOc1cc(CNCCc2ccccc2)ccc1OCC(=O)NC(C)(C)C | inactive: 6.41%
50 | CCc1nc2ccc(C(=O)Nc3cc(-c4ccccc4)ccc3OC)cn2c1N(C)CCC(C)C | inactive: -35.4%
51 | COc1ccc(OC)c(/C=C2\SC(=S)N(N3CCOCC3)C2=O)c1 | inactive: -12.3%
52 | CC(C)(C)N(Cc1ccccc1)C(=O)CN1C(=O)c2ccccc2S1(=O)=O | inactive: 18.8%
53 | CC(C)CC(NC(N)=O)C(=O)NCc1ccccc1Cl (stereo unspecified) | inactive: 7.89%
54 | Cc1ccc(S(=O)(=O)NN2C(=O)c3ccccc3NC2(C)C)cc1 | inactive: -3.11%
55 | CNc1c(NS(=O)(=O)c2ccc(OC)cc2)c(=O)oc2ccccc12 | inactive: -5.83%
56 | Cc1cc(C)cc(NC(=O)/C(C#N)=C/c2cn(CC(=O)NCc3ccco3)c3ccccc23)c1 | inactive: -1.99%
57 | COc1ccc(S(=O)(=O)N(C)C)cc1NC(=O)CCCSc1ccccc1 | inactive: -11.3%
58 | CCC1CCCCN1S(=O)(=O)c1ccc(NC(=O)c2cccnc2)cc1 (stereo unspecified) | inactive: -1.1%
59 | CC(=O)[C@@]1(O)CCC2C3CC[C@H]4C[C@@H](O)CC[C@]4(C)C3CC[C@@]21C (stereo partly specified) | inactive: 10.5%
60 | COc1ccc(OC)c(NC(=O)c2ccc3c(c2)C(=O)N(CC2CCCO2)C3=O)c1 (stereo unspecified) | inactive: -2.55%
61 | COC(=O)c1ccccc1N(C)S(=O)(=O)c1cc2c(cc1C)OCC(=O)N2 | inactive: 8.44%
62 | COc1cc(C#N)ccc1OC(=O)Cc1cc(OC)c(OC)c(OC)c1 | inactive: 12.4%
63 | COc1ccc(C(CC(=O)c2ccccc2)S(=O)(=O)c2ccccc2)cc1 (stereo unspecified) | inactive: -7.27%
64 | Cc1cc(C)cc(OCc2nnc(SCC(=O)NC3CC3)n2C)c1 | inactive: 4.01%
65 | CCOc1ccccc1N=Nc1c(C)[nH]n(C(N)=S)c1=O | inactive: 15.6%
66 | CNC(=S)Nc1ccc(Br)cc1 | inactive: 28.8%

Row | SMILES | growth rescue (activation)
67 | Cc1ccc(S(=O)(=O)N2CCN(C(=O)C(C)Cn3cncn3)CC2)cc1C (stereo unspecified) | inactive: 6.95%
68 | CC1=C(C(=O)N2CCOCC2)C(c2cc(C)ccc2C)NC(=S)N1 (stereo unspecified) | inactive: 9.5%
69 | Cc1ccc(S(=O)(=O)Nc2ccccc2C(=O)NCc2cccnc2)cc1 | inactive: 0.906%
70 | O=C(Nc1cccnc1)c1ccc(Cl)c(S(=O)(=O)N2CCOCC2)c1 | inactive: 8.52%
71 | CCCc1n(CC(O)COCc2ccccc2)c2ccccc2[n+]1C (stereo unspecified) | inactive: 7.33%
72 | Cc1c(NC(=O)/C(C#N)=C/c2c(Oc3ccccc3)nc3ccccn3c2=O)c(=O)n(-c2ccccc2)n1C | inactive: 8.35%
73 | O=[N+]([O-])c1ccc(N2CCOCC2)cc1SCc1ccco1 | inactive: 11.8%
74 | Cc1ccc(CNC(=O)CN(C(=O)C2(C)CC(=O)N=C3C=CC=CN32)c2cccc(C)c2C)cc1 (stereo unspecified) | inactive: 5.25%
75 | COCOc1cccc(CN2CCC2(C)C(=O)Nc2cc(OC)ccc2OC)c1 (stereo unspecified) | inactive: 4.81%
76 | COc1cc(/C=N/NC(=O)c2nonc2N)cc(OC)c1OC | inactive: 5.77%
77 | COc1ccc(Cc2nnnn2CC(=O)O)cc1 | inactive: 6.13%
78 | O=[N+]([O-])c1cc(C(F)(F)F)cc([N+](=O)[O-])c1NN=C1CCCCC1 | inactive: 19%
79 | Cc1cc(N2CCCC2)ccc1/C=C1/C(=O)N(C)C(=S)N1C | inactive: 5.71%
80 | O=S1(=O)CCC(NC(=S)SCc2ccccc2Br)C1 (stereo unspecified) | inactive: 22.4%
81 | O=C(CNC(=O)c1ccccc1Cl)c1ccccc1 | inactive: 10.2%
82 | CCOC(=O)N1CCC(NC(=O)c2ccc3c(c2)N(Cc2ccc(F)cc2)C(=O)c2ccccc2S3(=O)=O)CC1 | inactive: 0.625%
83 | Cc1cc(C(=O)NNC(=O)c2ccc(F)cc2)c(C)s1 | inactive: 20.3%
84 | COC(=O)Cc1[nH]n(-c2nc3ccccc3s2)c(=O)c1C(C)=O | inactive: -1.01%
85 | CC(=O)c1ccc(NC(=O)CCNS(=O)(=O)c2ccccc2F)cc1 | inactive: 3.88%
86 | O=C(COc1cccc2ccccc12)N/N=C/c1ccncc1 | inactive: 9.71%
87 | CCN(CC)c1ccc(N2C(=O)C3CCCCC3C2=O)cc1[N+](=O)[O-] (stereo unspecified) | inactive: 19.5%
88 | CCOc1ccc(OCC)c(S(=O)(=O)NCCOC23CC4CC(CC(C4)C2)C3)c1 | inactive: 2.74%

Row | SMILES | growth rescue (activation)
89 | COc1ccc(/C=N/Nc2cc(C)nc(NS(=O)(=O)c3ccc(C)cc3)n2)cc1 | inactive: 3.34%
90 | COc1cccc(CNC(=O)C2CCN(c3nnc(-n4c(C)ccc4C)s3)CC2)c1 | inactive: 6.5%
91 | CCC(C)N(C(=O)CSc1nc(-c2ccccc2)cs1)C1CCS(=O)(=O)C1 (stereo unspecified) | inactive: -12.3%
92 | Cc1cc(/C=N\O)c(C)n1-c1ccncc1 | inactive: 6.49%
93 | CCCn1c(SCC(=O)N2CCOCC2)nnc1-c1ccncc1 | inactive: -1.53%
94 | CNc1cncc(-c2cccc(NS(C)(=O)=O)c2)n1 | inactive: 1.07%
95 | CCCc1cc(=O)oc2cc(OCC(=O)N3CCOCC3)c(Cl)cc12 | inactive: 6.89%
96 | Clc1ccc(N=C2SCC3CCCCN23)cc1 (stereo unspecified) | inactive: -3.92%
97 | Cn1c(-c2ccc(F)cc2)cnc1SCC(=O)N1CCCc2ccccc21 | inactive: 18.4%
98 | CSc1ccc(CN(C)C(=O)c2cc3ccccc3o2)cc1 | inactive: 19.4%
99 | COc1cccc(N(C(=O)c2nc3nccc(C)n3n2)c2nc3ccccc3s2)c1 | inactive: 1.07%
100 | COC(=O)C1=C(N)N(c2ccccc2C(F)(F)F)C2=C(C(=O)CCC2)C1c1ccc2c(c1)OCO2 (stereo unspecified) | inactive: 16.2%
101 | Cc1ccc(NC(=O)c2cccs2)cc1S(=O)(=O)N(C)C | inactive: 7.01%
102 | CC1CCCC(NC(=O)COC(=O)[C@@H](NC(=O)c2ccco2)C(C)C)C1C (stereo partly specified) | inactive: 3.39%
103 | COc1ccc(NC(=O)/C=C/c2cccc(Br)c2)cn1 | inactive: 0.79%
104 | Cc1ccc(/C=N/N2CCN(Cc3ccc(C)cc3)CC2)cc1 | inactive: 8.99%
105 | CC(C)C(=O)NC(c1ccccc1)c1cc([N+](=O)[O-])c2cccnc2c1O (stereo unspecified) | inactive: 6.21%
106 | COc1ccc(N(C(=O)c2cccnc2)S(=O)(=O)c2cccs2)cc1 | inactive: 4.9%
